{
  "source": "PubChem BioAssay AID463173",
  "about": "(ICCB-Longwood Screening Facility, Harvard Medical School, 2010)",
  "note": "Among all 52,000 compounds or so, about 4,300 (8.3%) were called active. Rule as the data show it: active = survival mostly below about 52% (no sharp cut-off); inactive = mostly above about 56%. This is one part of the list.",
  "data": [
    {"system": "DeltatarO mutant", "assay": "growth inhibition of S. aureus wild type versus tarO mutant, primary screen, teichoic acid synthesis inhibitors, RN4220, OD600 (AID 463173)", "settings": "OD600, 18 h, hits give low values, screened at 18.75 µg/mL (by protocol)", "values": [
      {"smiles": "O=C(COc1ccc2oc3c(c2c1)CCCC3)Nc1cccc(Br)c1", "survival": "active: 27%"},
      {"smiles": "COc1ccc(C(=O)c2c(N)c(C(=O)Nc3ccccc3Cl)c3ccccn23)cc1", "survival": "inactive: 85%"},
      {"smiles": "Cc1cc(=O)[nH]c2nnc(SCC(N)=O)n12", "survival": "inactive: 69%"},
      {"smiles": "CCc1ccc(NC(=O)CCc2c(C)nn(-c3ccc(N4CCCC4)nn3)c2C)cc1", "survival": "inactive: 87%"},
      {"smiles": "CC(CC(=O)NCc1cccnc1)c1ccccc1", "note": "(stereo unspecified)", "survival": "inactive: 78%"},
      {"smiles": "Cc1oc2c(c1C(=O)Nc1ccc(OC(F)(F)F)cc1)C1=NCCN1C=N2", "survival": "inactive: 80%"},
      {"smiles": "COc1ccc(NS(=O)(=O)c2cnc(N)nc2)cc1Cl", "survival": "inactive: 67%"},
      {"smiles": "Oc1ccc2ccccc2c1/C=N/c1nccs1", "survival": "inactive: 81%"},
      {"smiles": "COc1nc(N)c(C#N)c(-c2ccc(C)cc2)c1C#N", "survival": "inactive: 83%"},
      {"smiles": "O=C(O)C1CC=CCC1Cc1ccccc1", "note": "(stereo unspecified)", "survival": "inactive: 93%"},
      {"smiles": "COCCCNC(=O)c1c(NC(=O)Cc2coc3cc(C)ccc23)sc2c1CCCC2", "survival": "inactive: 63%"},
      {"smiles": "COc1ccc(C(=O)/C=C/c2cn(CC(O)CN3CCCCCC3)c3ccccc23)cc1OC", "note": "(stereo unspecified)", "survival": "inactive: 80%"},
      {"smiles": "Cc1ccc(-c2noc(-c3ccc(N4CCOCC4)c([N+](=O)[O-])c3)n2)cc1", "survival": "inactive: 58%"},
      {"smiles": "COc1ccc(NC(=O)CSc2nc3ccccc3nc2N2CCOCC2)c(OC)c1", "survival": "inactive: 76%"},
      {"smiles": "Cc1ccc(C(=O)c2oc3ccccc3c2NC(=O)COc2ccccc2C)cc1", "survival": "inactive: 95%"},
      {"smiles": "Cc1ccccc1CN1C(=O)c2ccccc2S(=O)c2ccc(C(=O)N3CCOCC3)cc21", "note": "(stereo unspecified)", "survival": "inactive: 75%"},
      {"smiles": "Cc1ccc(C)c2c(N)c3c(nc12)CCCCC3", "survival": "inactive: 96%"},
      {"smiles": "O=[N+]([O-])c1cc(-c2nc(-c3ccccc3)no2)ccc1NCc1ccco1", "survival": "inactive: 64%"},
      {"smiles": "CC(=N/Nc1nnc(C)n1N)/C(C)=N/Nc1nnc(C)n1N", "survival": "inactive: 75%"},
      {"smiles": "Cn1c(=O)c2cc(C(=O)NCCCN3CCN(c4ccc(F)cc4)CC3)sc2c2ccccc21", "survival": "inactive: 70%"},
      {"smiles": "O=C(NCCCc1ccccc1)c1cccs1", "survival": "inactive: 102%"},
      {"smiles": "COc1cccc(CN2CCC(C(=O)N3CCCC(C)C3)CC2)c1", "note": "(stereo unspecified)", "survival": "inactive: 80%"},
      {"smiles": "CC1CCN(C(=O)Cn2cc(SCC(=O)NCc3ccc(F)cc3)c3ccccc32)CC1", "survival": "inactive: 52%"},
      {"smiles": "COc1cc(C(=O)NCCc2sc(-c3ccc(C)cc3)nc2C)cc(OC)c1OC", "survival": "inactive: 80%"},
      {"smiles": "Cc1nnc(N2C(=O)c3oc4ccccc4c(=O)c3C2c2cccc(OCCC(C)C)c2)s1", "note": "(stereo unspecified)", "survival": "inactive: 70%"},
      {"smiles": "CCCCc1ccc(C(=O)c2c(N)c(C(=O)Nc3cccc(OC)c3)c3ccccn23)cc1", "survival": "inactive: 93%"},
      {"smiles": "O=C(COc1ccccc1)N(Cc1cccnc1)c1nc2c(F)cc(F)cc2s1", "survival": "inactive: 84%"},
      {"smiles": "CC1CCN(S(=O)(=O)c2ccc3c(c2)N(CC(=O)NCCCOC(C)C)C(=O)CO3)CC1", "survival": "inactive: 116%"},
      {"smiles": "CCc1ccccc1NC(=O)CN(c1ccccc1OC)S(=O)(=O)c1ccc(C)cc1", "survival": "active: 36%"},
      {"smiles": "COCCNC(=O)Cn1c(-c2cccs2)cc2cc(Cl)ccc21", "survival": "inactive: 115%"},
      {"smiles": "Cc1ccsc1CN(C(=O)COc1ccccc1Cl)C1CCS(=O)(=O)C1", "note": "(stereo unspecified)", "survival": "inactive: 86%"},
      {"smiles": "Cc1ccc(C2CC(=O)N(Cc3ccc(F)cc3)c3c2c(C)nn3-c2nc(C)cc(C)n2)cc1", "note": "(stereo unspecified)", "survival": "inactive: 77%"},
      {"smiles": "COc1ccc(CCNC(=O)CCCn2c(=O)c3ccccc3n(CC(=O)Nc3ccccc3C)c2=O)cc1OC", "survival": "inactive: 94%"},
      {"smiles": "Cc1ccccc1CNC(=O)CN1C(=O)CCCc2ccccc21", "survival": "inactive: 62%"},
      {"smiles": "Cc1ccc2scc(N3CCCCC3C)c(=O)c2c1", "note": "(stereo unspecified)", "survival": "inactive: 71%"},
      {"smiles": "COc1ccc(Cn2c(SCC(=O)N3CCN(c4ccc(F)cc4)CC3)nc3ccccc32)cc1", "survival": "active: 47%"},
      {"smiles": "O=C(CN1CCN(Cc2ccc(F)cc2)C1=O)NCc1ccc(F)cc1", "survival": "inactive: 77%"},
      {"smiles": "C=CCNC(=O)CN1CCC(n2c(C)nc3cc(C(F)(F)F)ccc32)CC1", "survival": "inactive: 95%"},
      {"smiles": "Cc1ccc(NC2(c3ccccc3)C(=O)c3ccccc3C2=O)cc1F", "survival": "active: 58%"},
      {"smiles": "CCc1ccc(NC(=O)CSc2ccc(-c3sc(-c4ccccc4)nc3C)nn2)cc1", "survival": "inactive: 38%"},
      {"smiles": "Cc1ccccc1C(=O)Nc1cccc(NC(=O)c2ccc(C(C)(C)C)cc2)c1", "survival": "inactive: 124%"},
      {"smiles": "CCN(Cc1ccccc1)c1nc2c(S(=O)(=O)c3ccccc3)nnn2c2ccc(Cl)cc12", "survival": "inactive: 85%"},
      {"smiles": "Cc1nn(C(C)C(=O)NCCc2ccccc2)c(=O)c2c1sc1ccccc12", "note": "(stereo unspecified)", "survival": "inactive: 95%"},
      {"smiles": "CCOC(=O)CSc1nc2sc3c(c2c(=O)n1Cc1ccccc1)CC(C(C)C)OC3", "note": "(stereo unspecified)", "survival": "inactive: 74%"},
      {"smiles": "CCC(C)NC(=O)CCCn1c(=O)c2cccn2c2ccccc21", "note": "(stereo unspecified)", "survival": "inactive: 90%"},
      {"smiles": "COc1ccc(C2C(=O)N(C3CCCCCC3)CC(=O)N2CCc2ccc(Cl)cc2)cc1OC", "note": "(stereo unspecified)", "survival": "inactive: 84%"}
    ]}
  ]
}
